From the BET-seq Pho4 binding data (Le et al. 2018)
This is one part of the list. Values were computed here from the reads of four pooled replicates and scatter widely.

target: T1, Pho4 (S. cerevisiae) (UniProt P07270); assay: relative binding free energy (BET-seq); higher = weaker binding; conditions: reference: library average
T1 sequence: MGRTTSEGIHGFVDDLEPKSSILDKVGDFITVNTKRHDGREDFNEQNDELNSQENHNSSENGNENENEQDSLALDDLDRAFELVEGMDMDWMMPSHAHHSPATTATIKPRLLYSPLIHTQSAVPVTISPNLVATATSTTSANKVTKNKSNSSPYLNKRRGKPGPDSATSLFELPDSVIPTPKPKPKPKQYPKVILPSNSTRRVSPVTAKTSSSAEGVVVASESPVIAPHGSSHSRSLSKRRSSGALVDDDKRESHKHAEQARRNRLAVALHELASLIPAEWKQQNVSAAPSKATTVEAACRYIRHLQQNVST

Sequence | relative binding free energy [kcal/mol]
CGGGTCACGTGAAAAG | 0.31
CGAGGCACGTGGTATG | -0.08
AATGGCACGTGGTTTG | -0.11
CATGACACGTGGTGTT | -0.09
GTTTGCACGTGCATGA | 0.01
ATAGTCACGTGTTACG | 0.07
TAGTGCACGTGGAGGG | 0.01
TAGATCACGTGAAAGT | 0.33
TTTGGCACGTGGAACG | -0.16
GTGGGCACGTGAGGTA | 0.16
AGATGCACGTGGTGTG | -0.09
TTGTGCACGTGACGTA | 0.08
TGCTGCACGTGGCTTG | -0.2
GGAGGCACGTGTCAGA | 0.02
ATTAACACGTGGGGGA | -0.13
GGGGACACGTGTCAGT | -0.03
TTGTTCACGTGTGATT | 0.36
GTGATCACGTGCGGGC | -0.03
AAGGACACGTGTAGGG | 0.09
TAAATCACGTGGTAAT | 0.18
TTAGTCACGTGCGGGT | 0.08
TTTCTCACGTGATTGC | 0.42
GATTGCACGTGGGGTA | -0.13
GGTATCACGTGCTGTT | 0.17
CGGATCACGTGTGGGA | 0.34

Sequence | relative binding free energy [kcal/mol]
TTGTCCACGTGGTATA | 0.09
TATGGCACGTGATCGA | -0.08
TGATTCACGTGGCCGG | 0.1
TTAGTCACGTGAAATG | 0.49
GTATGCACGTGAAGGA | 0.2
GGGTACACGTGTCATT | 0.15
GTTTGCACGTGACGAT | 0.23
TCTGTCACGTGTTGTT | 0.06
GTTAACACGTGGTAAG | 0.11
GGCTGCACGTGGTGGA | -0.11
GGCTGCACGTGTGTTA | 0.09
GTTGGCACGTGGTACT | -0.12
GGTGACACGTGTTGGA | 0.1
TTCGTCACGTGATATA | 0.19
AGCGTCACGTGTGTAG | -0.01
TAAGACACGTGAGAGT | 0.32
GCAATCACGTGGGATG | 0.08
GGAGGCACGTGTAAGC | 0.02
GGGGGCACGTGTTTGA | 0.05
CGGTGCACGTGTGTAT | -0.06
GTAGGCACGTGTGGAG | -0.01
GGGTCCACGTGCAGGG | 0.12
GTTTGCACGTGAGGGG | 0.25
ATTGACACGTGATGGC | 0.23
GAAGACACGTGGGTTG | -0.05

Sequence | relative binding free energy [kcal/mol]
ATTTGCACGTGTTTAG | 0.01
TGTAGCACGTGGTAAG | -0.06
TGTTGCACGTGCTGGT | -0.09
TTTAGCACGTGAGATT | 0.19
TGGGTCACGTGACCGT | 0.09
GTGGTCACGTGCCTTG | 0.09
CCGGTCACGTGTGGTG | 0.1
CTTGTCACGTGTAGTG | 0.18
GTGTTCACGTGAGATA | 0.37
TGAGTCACGTGTGAGT | 0.27
GTCAGCACGTGGAAGT | 0.12
GTGTGCACGTGCTGAG | -0.09
TCGTACACGTGTGGGC | 0.09
TAGTGCACGTGCGGTT | 0.04
CCTGTCACGTGTATGT | -0.01
CACGGCACGTGGGTTG | -0.25
TGAGACACGTGAGGGG | 0.28
CGTGGCACGTGTTTTA | -0.14
GCGTACACGTGTGGAT | 0.23
TAAGACACGTGGCGGG | -0.06
TTAGGCACGTGGATTA | -0.13
TGCGACACGTGGGCGG | -0.28
AGCGTCACGTGTCGTT | 0.1
TAAATCACGTGCGTGG | 0.07
ATGAACACGTGTGCGG | -0.01

Sequence | relative binding free energy [kcal/mol]
GTTAGCACGTGTGTCT | 0.03
AAGAACACGTGGTGGG | -0.08
TGTGCCACGTGGTGCG | -0.21
TCTAACACGTGGTTGG | 0.01
TAAATCACGTGTTGGA | 0.16
CGTAGCACGTGTTGGG | -0.02
AGTTTCACGTGGCTGC | 0.16
TAAATCACGTGAATTG | 0.25
GTAGTCACGTGAGTGC | 0.39
TTTGTCACGTGTCGTT | 0.08
AGCATCACGTGTGGGT | 0.14
TGTGTCACGTGATGGG | 0.24
CCGGGCACGTGATTGG | -0.03
CTGAGCACGTGGTTTT | -0.13
AAAGGCACGTGATGAG | 0.08
TGTTCCACGTGGGTCG | -0.15
TGTAGCACGTGTGCTG | 0.04
AAGGTCACGTGCTATG | 0.06
ATGGTCACGTGAAGTG | 0.18
ACGTGCACGTGGGGGA | -0.22
AAGCGCACGTGAGGGT | 0.1
TGAGCCACGTGGGTAA | -0.07
GGCCTCACGTGTGAGT | 0.27
CCGTGCACGTGTTTGT | 0.02
TTTAGCACGTGTTATC | -0.1

Sequence | relative binding free energy [kcal/mol]
TAGGACACGTGATTGT | 0.13
GTGCACACGTGGGTAT | -0.11
TAGTGCACGTGAGCAT | 0.1
ATTTTCACGTGTATAT | 0.21
TTGCGCACGTGTTGTT | 0
AGTCGCACGTGGGATA | -0.12
GGTCACACGTGGGGAG | 0.09
GCCTGCACGTGGTGTG | -0.12
ATTATCACGTGCGTAG | 0.23
CTGGTCACGTGTCTGG | 0.11
AGCATCACGTGTAGTG | 0.06
GGTTTCACGTGGGGGC | 0.31
ATTCGCACGTGTTTTG | -0.01
GTGTTCACGTGCCAGG | 0.27
CGTGTCACGTGGTTTC | 0.11
AAATGCACGTGTGGAG | -0.01
GGAGTCACGTGTTGAA | 0.33
GCGTGCACGTGTTGGG | 0.04
ATTAACACGTGTATGG | -0.05
GCGGTCACGTGTAGTT | 0.21
CCTGACACGTGTGTTG | 0.11
GATGACACGTGTGGGT | 0.1
AGATTCACGTGGGATT | 0.25
GTGCGCACGTGTGTTC | 0.09
TGGCTCACGTGCAGTG | 0.19

Sequence | relative binding free energy [kcal/mol]
AGGTTCACGTGGCGCA | 0.16
TAAGTCACGTGGATTA | 0.01
GGTGCCACGTGATTGG | 0.19
TGAGGCACGTGGATTT | 0.02
TAGATCACGTGTAGTG | 0.18
TGCGGCACGTGGCGAG | -0.06
GGCGGCACGTGTTCTT | 0.05
CGTGGCACGTGTGGAG | -0.12
TGAGTCACGTGGTATG | 0.05
TAGATCACGTGATATT | 0.21
ATGGCCACGTGTGTCG | -0.07
TTTGTCACGTGGTTAT | 0.11
CTTGGCACGTGTGGGG | -0.01
CGGATCACGTGGGGTA | -0.07
AGGTACACGTGTGACG | 0.18
GGGTGCACGTGGCCAG | -0.12
GTTAGCACGTGACGTA | 0.16
GTGGACACGTGGGATG | -0.14
TGCGGCACGTGATGTA | 0.06
CGATGCACGTGGGAAG | -0.06
GTGTTCACGTGTAGAT | 0.22
